The text below walks through data of PubChem BioAssay AID360 (National Center for Advancing Translational Sciences (NCATS), 2006).

About 550 (1.1%) of roughly 48,000 compounds were called active. Another 4% or so got no clear call; they are omitted. Rule as the data show it: active = potency below about 15 µM; inconclusive = mostly about 16 µM to 33 µM; inactive = weaker than that. Some of the results follow. Where only a bound is given, the exact number is not on record here.
Potency is read from the fitted curve at half-maximal effect.

Sequence of UniProt P04062 (P04062 whole entry, looked up): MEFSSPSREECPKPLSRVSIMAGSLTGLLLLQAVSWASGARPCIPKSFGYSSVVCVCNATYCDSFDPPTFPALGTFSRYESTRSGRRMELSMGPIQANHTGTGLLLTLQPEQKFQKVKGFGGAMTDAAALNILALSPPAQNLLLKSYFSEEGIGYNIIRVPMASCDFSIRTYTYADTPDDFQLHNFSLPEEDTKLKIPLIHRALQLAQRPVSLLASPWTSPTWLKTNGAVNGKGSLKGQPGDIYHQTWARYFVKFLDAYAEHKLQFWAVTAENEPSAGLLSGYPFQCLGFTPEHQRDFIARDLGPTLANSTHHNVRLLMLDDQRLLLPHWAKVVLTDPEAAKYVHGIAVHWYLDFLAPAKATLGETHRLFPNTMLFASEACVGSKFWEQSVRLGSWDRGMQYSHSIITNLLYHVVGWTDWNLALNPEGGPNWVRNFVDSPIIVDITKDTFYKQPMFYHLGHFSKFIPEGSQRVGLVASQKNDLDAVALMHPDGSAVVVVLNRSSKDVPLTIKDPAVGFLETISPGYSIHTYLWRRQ

The target of this test is Lysosomal acid glucosylceramidase (Homo sapiens) (UniProt P04062). The test is described as follows: Glucocerebrosidase.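 Also: the screen sought inhibitors.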 Particulars: purified enzyme, resorufin glucoside fluorescence (screen aimed at inhibitors), 20 min. Summed up:
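Compounds titrated against 0.2 nM normal enzyme, 30 uM resorufin beta-D-glucopyranoside substrate, citrate/phosphate buffer with taurocholate and tween-20, pH 5.9. Reaction ran 20 min at room temperature; fluorescence (Ex 548/Em 600) gave AC50.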
Regarding `CC(C)Cc1ccc(S(=O)(=O)N2CCN(C(=O)c3ccco3)CC2)cc1`, the Potency was inactive: > 76.9 µM.

Take `C/C(O)=C(/C#N)c1nc2ccccc2[nH]1`: the Potency is inactive: > 76.9 µM.

On to `O=C(CN1C(=O)c2ccccc2S1(=O)=O)NC1CCCC1`, for which the Potency was inactive: > 76.9 µM.

For the compound `CCOC(=O)CC(=O)CSc1nc2c(sc(=S)n2-c2ccccc2)c(=O)[nH]1`, the Potency was inactive: > 76.9 µM.

For the compound `CCn1cc(C(=O)NCc2ccc(OC)cc2OC)c(=O)c2ccc(C)nc21`, the Potency was inactive: > 76.9 µM.

Regarding `COC(=O)Cn1c(CCS(=O)(=O)c2ccc(C)cc2)nc2ccccc21`, the Potency was inactive: > 76.9 µM.

For the compound `COc1cccc(C2N(c3ccccn3)C(=O)C3CCCN32)c1OC` (centres undefined), the Potency was inactive: > 76.9 µM.

Take `CC(=O)c1c(C(C)=O)c(C)n(NC(=O)c2ccccc2O)c1C`: the Potency is inactive: > 76.9 µM.

For the compound `O=C(c1ccco1)N1CCN(C/C=C/c2ccccc2)CC1`, the Potency was inactive: > 76.9 µM.

In the case of `CCc1cccc(C)c1NC(=O)CSc1nnc(-c2ccco2)n1N`, the Potency was inactive: > 76.9 µM.

For the compound `O=C(Nc1ccccc1C(=O)NCCN1CCOCC1)c1ccco1`, the Potency was inactive: > 76.9 µM.

As for `O=C(NCC1CCCO1)c1ccc(CS(=O)(=O)Cc2ccc(F)cc2)o1` (centres undefined), the Potency is inactive: > 76.9 µM.

With `CC(=O)COc1ccc2c3c(c(=O)oc2c1C)CCCCC3`, the Potency is inactive: > 76.9 µM.

`O=C(CSc1ncn[nH]1)c1ccccc1`: the Potency was inactive: > 76.9 µM.

Turning to `Cc1ccc(C)c(N2CCN(C(c3ccncc3)c3nnnn3Cc3ccccc3)CC2)c1` (centres undefined), the Potency is inactive: > 76.9 µM.

For the compound `C=CCn1c(N)c(C(=O)OCC(C)C)c2nc3ccccc3nc21`, the Potency is inactive: > 76.9 µM.

In the case of `COCCCNC(=O)CCCn1c(=O)[nH]c2ccccc2c1=O`, the Potency is inactive: > 76.9 µM.

For the compound `O=C(O)c1c(Cl)c(Cl)c(Cl)c(Cl)c1C(=O)N1CCOCC1`, the Potency is inactive: > 76.9 µM.

With `COCCN1C(=O)c2ccc(C(=O)Nc3nccs3)cc2C1=O`, the Potency is inactive: > 76.9 µM.

On to `Cn1c(SCC(=O)Nc2ccc3c(c2)OCCO3)nnc1-c1ccccn1`, for which the Potency was inactive: > 76.9 µM.

`CCCCCNC(=O)c1ccc2c(=O)n(CC3CCCO3)c(=O)[nH]c2c1` (centres undefined): the Potency was active: 11 µM.

Take `OC(Cn1cccn1)c1ccccc1` (centres undefined): the Potency was inactive: > 76.9 µM.

`CCCC(=O)Nc1ccc(Cl)c(NC(=O)C(C)(C)C)c1`: the Potency was inactive: > 76.9 µM.

Turning to `CC(=O)OCCCN1C(=O)c2ccc(Br)cc2C1=O`, the Potency is inactive: > 76.9 µM.

As for `O=C(NCC1CCCO1)c1cc2n(n1)C(C(F)(F)F)CC(c1ccc(F)cc1)N2` (centres undefined), the Potency was inactive: > 76.9 µM.

For the compound `O=C(Cn1cnc2c(nnn2Cc2ccccc2F)c1=O)NCC1CCCO1` (centres undefined), the Potency was inactive: > 76.9 µM.

For `CCOC(=O)c1c(NC(=O)Cn2c(=O)oc3ccccc32)oc(C)c1C(C)=O`, the Potency was inactive: > 76.9 µM.

Take `O=C(O)C1CCCCC1C(=O)NCc1ccc(F)cc1` (centres undefined): the Potency is inactive: > 76.9 µM.

Consider `CC(C)[C@H](NC(=O)Nc1ccc2c(c1)OCCO2)C(=O)O`, for which the Potency is inactive: > 76.9 µM.

On to `O=S(=O)(O)c1nc2ccccc2n1Cc1ccc(Cl)cc1`, for which the Potency was inactive: > 76.9 µM.

For `CCCCc1[nH]nc2c1C1(C(=O)N(CC)c3ccccc31)C(C#N)=C(N)O2` (centres undefined), the Potency is inactive: > 76.9 µM.

As to `CNC(=O)CSc1nnc(-c2cc3c(C)nn(-c4ccccc4)c3s2)n1C`, the Potency is inactive: > 76.9 µM.

Turning to `CC1(C(=O)N(CC(=O)NC2CCCC2)C2CCCC2)CC(=O)N=C2C=CC=CN21` (centres undefined), the Potency was inactive: > 76.9 µM.

Turning to `Cc1noc(C)c1S(=O)(=O)N1CCC(C(=O)N2CCN(C(=O)c3ccco3)CC2)CC1`, the Potency is inactive: > 76.9 µM.

As to `CCOC(=O)N1CCN(C(=O)c2csc3c2CCCCC3)CC1`, the Potency is inactive: > 76.9 µM.

For the compound `CC(C)(C)n1nc2c(c1NC(=O)COc1ccc(Cl)cc1)CSC2`, the Potency is inactive: > 76.9 µM.

Take `CCCCOc1ccc(C(=O)NCc2ccco2)cc1`: the Potency was inactive: > 76.9 µM.

Take `Cc1cc(C)c2[nH]c(=O)c(C(c3nnnn3C3CCCC3)N3CCOCC3)cc2c1` (centres undefined): the Potency is inactive: > 76.9 µM.

As for `CN(CC(=O)N1CC=C(c2ccccc2)CC1)S(=O)(=O)c1cnc[nH]1`, the Potency was inactive: > 76.9 µM.

`CCOC(=O)C1CCCN(C(=O)C2CC(=O)N(c3ccc(C)cc3)C2)C1` (centres undefined): the Potency is inactive: > 76.9 µM.

On to `CCOC(=O)c1c(NC(=O)c2ccc(-n3cnnn3)cc2)sc2c1CCCC2`, for which the Potency is inactive: > 76.9 µM.

As to `CSc1nc2nc(C)cc(-c3ccccc3)n2n1`, the Potency is inactive: > 76.9 µM.

With `CCS(=O)(=O)NCc1ccc2[nH]c3c(c2c1)CCCC3`, the Potency was inactive: > 76.9 µM.

Regarding `O=S(=O)(Nc1ccc(C(F)(F)F)cc1)c1cnc[nH]1`, the Potency was inactive: > 76.9 µM.

As for `Brc1ccc(-c2nn3c(-c4ccccn4)nnc3s2)o1`, the Potency was inactive: > 76.9 µM.

For the compound `Cc1csc(NC(=O)CSc2nnc(C)s2)n1`, the Potency is inactive: > 76.9 µM.

As to `CCN(CC)CC(=O)Nc1c(Br)ccc2c1OCO2`, the Potency was inactive: > 76.9 µM.

In the case of `COCCCNC(=O)CCNS(=O)(=O)c1ccc(C)cc1`, the Potency was inactive: > 76.9 µM.

As to `COC(=O)c1ccc(Oc2nc(Nc3ccccc3)nc(N(C)C)n2)cc1`, the Potency was inactive: > 76.9 µM.

For `COc1ccc(C2Sc3nncn3N2Cc2ccc(C#N)cc2)cc1` (centres undefined), the Potency is inactive: > 76.9 µM.

On to `COc1ccc(NC(=O)c2sc(SC)nc2N)cc1`, for which the Potency was inactive: > 76.9 µM.

As to `CCC1SC2=NCCN2C1(O)c1ccc(Cl)cc1` (centres undefined), the Potency is inactive: > 76.9 µM.

With `CCn1nnc(NC(=O)c2cccc(-c3cc4ccccc4oc3=O)c2)n1`, the Potency was inactive: > 76.9 µM.

`CCOC(=O)CN1C(=O)C(C)(C)Oc2ccc(C(=O)Nc3ccccc3OC)cc21`: the Potency was inactive: > 76.9 µM.

Regarding `COc1ccc(CN2CCN(C)CC2)cc1OCc1ccccc1`, the Potency was inactive: > 76.9 µM.

For the compound `Cc1ccc(S(=O)(=O)NCC(=O)N(CC(=O)NCc2ccccc2)CC2CCCO2)cc1` (centres undefined), the Potency is inactive: > 76.9 µM.

With `COC(=O)c1ccccc1NC(=O)CSc1n[nH]c(CC(C)C)n1`, the Potency is inactive: > 76.9 µM.

Take `CCOc1ccc(C(C#N)N2CCOCC2)cc1OC` (centres undefined): the Potency is inactive: > 76.9 µM.

As to `COc1ccc(C(=O)CSc2nnc(C(CO)NC(=O)c3ccc(OC)cc3)n2C)cc1` (centres undefined), the Potency was inactive: > 76.9 µM.
